The results in this text go back to the supplement of paper PMC8728848.

What all share (assay): glycan array binding signal (z-score within array); higher = stronger binding
Holding throughout (settings): glycan notation: IUPAC condensed, linker removed

In one experiment the target is Gal(b1-4)Glc. The method in brief:
(§1)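 Glycan array binding is given as a within-array Z-score, which can be read as non-binding when negative. The arrays, 3228 of them, came from the Consortium for Functional Glycomics database and were retained only where the protein sequence was available. Z-scores were averaged across arrays of the same protein sequence at different concentrations or buffers and across linkers.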

A further experiment concerns the target Gal(b1-4)Glc6S. The method in brief:
as §1

In a further experiment the target is Gal(b1-4)GlcNAc. A digest of the protocol: as §1
Experiment [1] deals with Gal(b1-4)GlcNAc(a1-6)Gal(b1-4)GlcNAc. The method in brief: as §1
In another experiment the target is Gal(b1-4)GlcNAc(b1-2)Man. The method in brief: as §1
The target of experiment [2] is Gal(b1-4)GlcNAc(b1-2)Man(a1-3)Man(b1-4)GlcNAc(b1-4)GlcNAc. The method in brief:
as §1

The target of experiment [3] is Gal(b1-4)GlcNAc(b1-2)Man(a1-3)[Gal(b1-4)GlcNAc(b1-2)Man(a1-6)]Man(b1-4)GlcNAc(b1-4)GlcNAc. A digest of the protocol:
as §1

The target in experiment [4] is Gal(b1-4)GlcNAc(b1-2)Man(a1-3)[Gal(b1-4)GlcNAc(b1-2)Man(a1-6)]Man(b1-4)GlcNAc(b1-4)[Fuc(a1-6)]GlcNAc. A digest of the protocol: as §1
In experiment [5] the target is Gal(b1-4)GlcNAc(b1-2)Man(a1-3)[Gal(b1-4)GlcNAc(b1-2)Man(a1-6)][Gal(b1-4)GlcNAc(b1-4)]Man(b1-4)GlcNAc(b1-4)[Fuc(a1-6)]GlcNAc. A digest of the protocol: as §1
For experiment [6], the target named is Gal(b1-4)GlcNAc(b1-2)Man(a1-3)[Gal(b1-4)GlcNAc(b1-2)Man(a1-6)][GlcNAc(b1-4)]Man(b1-4)GlcNAc(b1-4)[Fuc(a1-6)]GlcNAc. A digest of the protocol: as §1
The target of experiment [7] is Gal(b1-4)GlcNAc(b1-2)Man(a1-3)[GlcNAc(b1-2)Man(a1-6)]Man(b1-4)GlcNAc(b1-4)GlcNAc. The method in brief:
as §1

Experiment [8] has as its target Gal(b1-4)GlcNAc(b1-2)Man(a1-3)[GlcNAc(b1-4)][Gal(b1-4)GlcNAc(b1-2)Man(a1-6)]Man(b1-4)GlcNAc(b1-4)GlcNAc. A digest of the protocol: as §1
The target in experiment [9] is Gal(b1-4)GlcNAc(b1-2)Man(a1-3)[Man(a1-6)]Man(b1-4)GlcNAc(b1-4)GlcNAc. A digest of the protocol: as §1
Experiment [10] deals with Gal(b1-4)GlcNAc(b1-2)Man(a1-6)Man(b1-4)GlcNAc(b1-4)GlcNAc. A digest of the protocol: as §1
Experiment [11] deals with Gal(b1-4)GlcNAc(b1-2)Man(a1-6)[GlcNAc(b1-2)Man(a1-3)]Man(b1-4)GlcNAc(b1-4)GlcNAc. The method in brief: as §1
In experiment [12] the target is Gal(b1-4)GlcNAc(b1-2)Man(a1-6)[Man(a1-3)]Man(b1-4)GlcNAc(b1-4)GlcNAc. A digest of the protocol: as §1
For experiment [13], the target named is Gal(b1-4)GlcNAc(b1-2)[Gal(b1-4)GlcNAc(b1-4)]Man(a1-3)[Gal(b1-4)GlcNAc(b1-2)Man(a1-6)]Man(b1-4)GlcNAc(b1-4)GlcNAc. The method in brief:
as §1

For experiment [14], the target named is Gal(b1-4)GlcNAc(b1-2)[Gal(b1-4)GlcNAc(b1-4)]Man(a1-3)[Gal(b1-4)GlcNAc(b1-2)[Gal(b1-4)GlcNAc(b1-6)]Man(a1-6)]Man(b1-4)GlcNAc(b1-4)GlcNAc. A digest of the protocol: as §1
Experiment [15] deals with Gal(b1-4)GlcNAc(b1-2)[Gal(b1-4)GlcNAc(b1-4)]Man(a1-3)[GlcNAc(b1-4)][Gal(b1-4)GlcNAc(b1-2)Man(a1-6)]Man(b1-4)GlcNAc(b1-4)GlcNAc. The method in brief: as §1
In experiment [16] the target is Gal(b1-4)GlcNAc(b1-2)[Gal(b1-4)GlcNAc(b1-4)]Man(a1-3)[GlcNAc(b1-4)][Gal(b1-4)GlcNAc(b1-2)[Gal(b1-4)GlcNAc(b1-6)]Man(a1-6)]Man(b1-4)GlcNAc(b1-4)GlcNAc. A digest of the protocol:
as §1

For experiment [17], the target named is Gal(b1-4)GlcNAc(b1-2)[Gal(b1-4)GlcNAc(b1-6)]Man(a1-6)[Gal(b1-4)GlcNAc(b1-2)Man(a1-3)]Man(b1-4)GlcNAc(b1-4)GlcNAc. The method in brief:
as §1

In experiment [18] the target is Gal(b1-4)GlcNAc(b1-2)[Gal(b1-4)GlcNAc(b1-6)]Man(a1-6)[Gal(b1-4)GlcNAc(b1-2)Man(a1-3)]Man(b1-4)GlcNAc(b1-4)[Fuc(a1-6)]GlcNAc. The method in brief: as §1

The list shows a part of the results.

B1: PLU (Photorhabdus luminiscence) (protein)
chain: HHHHHHENLYFQSSIVFASIDPRSNPLQTSSQNYVDIPGLKLDVSKYSNSPCLTALITLNIPTPYASGNNFPGGNFAIVTDQGEQLAYGGFTYSSKIPENSGRMPFTLVARYSLASNVSTIKAQWSNIRGSTVHIDSYASISAVIQCNQLV
Take B1: the “glycan array binding signal (z-score)” value with Gal(b1-4)Glc was -0.354; in the experiment with Gal(b1-4)Glc6S it was -0.211; with Gal(b1-4)GlcNAc it was -0.337; in [1] it was -0.314; with Gal(b1-4)GlcNAc(b1-2)Man it was -0.321; in experiment [2], -0.227. Further, the “glycan array binding signal (z-score)” value in [3] was -0.246; in experiment [4], -0.246; in experiment [5] it was -0.357; in [6], -0.291; in experiment [7], -0.262; in experiment [8] it was -0.281. Besides, the “glycan array binding signal (z-score)” value was -0.351 in [9]; -0.333 in experiment [10]; -0.232 in experiment [11]; -0.259 in experiment [12]; -0.291 in [13]; -0.318 in experiment [14]. The “glycan array binding signal (z-score)” value in experiment [15] was -0.305; in [16] it was -0.298; in [17] it was -0.278; in [18], -0.162.
